Reference: ChEMBL document CHEMBL4888484, “Replenishing the malaria drug discovery pipeline: Screening and hit evaluation of the MMV Hit Generation Library 1 (HGL1) against asexual blood stage Plasmodium falciparum ,using a nano luciferase reporter read-out” (2022)
The whole screen tested about 150,000 compounds, of which about 540 (0.36%) showed an effect of 50% or more. Some of the results follow.

Each molecule was assayed on Plasmodium falciparum (assay: Primary screen in NF54 nanoGlo assay, in single point, at 2uM, 72h; a lower Z score goes with more inhibition). Conditions: timepoint 72 hour.
Format: functional, Erythrocyte

SMILES | % Inhibition | Z score
COc1cc(F)ccc1S(=O)(=O)N1CCN(Cc2c(-c3ccc(Cl)cc3)nc3ccc(-c4ccccc4)cn23)CC1 | -3% | 0.63
Cc1ncoc1C(=O)N1CC(C)(C)[C@@](C)(O)C1 | -13% | 1.15
Oc1cccc(CN(C[C@H]2CCC=CO2)C2CCC(O)CC2)c1 (some centres undefined) | 1% | -0.12
Cc1ccccc1C1(NC(=O)c2cc(Cl)c[nH]c2=O)CC1 | 10% | -1.36
CC1CCC(NC(=O)CN2CCN(Cc3cccc(Cl)c3)C2=O)CC1 (centres undefined) | 29% | -3.97
O=C1CCCN1c1ccc(-c2csc(-c3cnccn3)n2)cc1 | -22% | 3.36
Cc1nc[nH]c1CN1CCC2(CC1)C[C@@H](c1ccccc1)C(=O)N(C1CC1)C2 | -5% | 0.58
Nc1ccc(C(=O)N2CCC(n3cc(Cc4ccccc4)nn3)CC2)cn1 | -14% | 1.79
COC(=O)[C@H](Cc1ccc(OC)cc1)NC(=O)[C@H]1CN(C(=O)Nc2ccccc2)CCN1C(=O)NC(C)C | 3% | -0.42
O=C(NCC1CCCCC1)c1ccc(CN2C(=O)NC3(CCS(=O)(=O)CC3)C2=O)cc1 | -13% | 1.49
O=C(C[C@@H]1C[C@H]2O[C@H](CNC(=O)NCc3ccccc3)[C@@H](O)[C@H]2O1)NC1CC1 | -4% | 0.57
CCCn1cc(C(=O)N(C)C[C@H]2CCCCO2)c(C)n1 | -7% | 0.96
Cc1cccc(C(=O)N(Cc2cc(NC(=O)c3cccs3)ccc2N(C)C)[C@@H](C)C(C)C)c1 | 5% | -0.82
O=C(Nc1ccn(Cc2cccnc2)n1)c1ccc(-c2ccccc2F)o1 | 36% | -4.82
CCc1ccc(-c2nc(C)no2)cc1S(C)(=O)=O | -3% | 0.59
O=C(Nc1ccccn1)[C@@H]1CCC(=O)N1C(=O)OCc1ccccc1 | -1% | 0.11
N#CCCN(CCC#N)Cc1cc(F)cc(Br)c1 | -9% | 0.99
Cc1cc(C)c(C#N)c(-c2cccc(C(=O)NCCc3n[nH]c(=O)n3C)c2)n1 | -8% | 0.86
N[C@H]1[C@H](O)[C@@H](N2CCC(Cc3ccccc3)CC2)[C@@H]2OC[C@H]1O2 | -5% | 0.7
Cc1cc(C(=O)N2CCS(=O)(=O)CC2)sc1-c1ccccc1 | -1% | 0.25
COc1ccc(CN(C(=O)c2cc(-c3ccccc3)on2)[C@H]2CCS(=O)(=O)C2)cc1OC | -1% | 0.17

SMILES | % Inhibition | Z score
CCn1ncc(CN2C3CCC2Cn2c(C)nnc2C3)c1C (centres undefined) | -12% | 1.61
Cc1ccc(CN(C)C(=O)Nc2cccc(N3CCCC3=O)c2)nc1 | -15% | 1.6
C#CCCCCNC(=O)OCc1ccccc1 | -7% | 1.01
Cn1cc(Cl)c(CNC(=O)NC[C@H]2CCOC2)n1 | 0% | 0.01
CS(=O)(=O)NCC1CCOC1c1ccccc1 (centres undefined) | -9% | 1.24
COCC1(C(=O)N2C[C@H](OC)[C@@H](O)C2)CCC1 | -8% | 1.09
COc1ccccc1NC(=O)c1[nH]c2cc(C)sc2c1CN1CCOCC1 | 4% | -0.43
O=C(NCC(F)(F)c1ccccc1)N1CCC2(CCC2)S(=O)(=O)CC1 | -1% | 0.08
COCC1(CNC(=O)c2cc(F)ccc2O)CCC1 | -24% | 2.58
CC1CCCN(C(=O)Cc2csc(-c3ccoc3)n2)C1CN (centres undefined) | 1% | -0.11
Cc1cc(C(=O)NCc2ccc(N3CCOCC3)cc2)ccc1N(C)S(C)(=O)=O | 7% | -0.9
O=C(NCC1CCN(c2cc(-c3ccc(F)cc3)n[nH]2)CC1)c1n[nH]c2c1CCCC2 | -18% | 1.86
Cc1cc(N2C(=O)CN(Cc3cccc(Br)c3)C2=O)no1 | 24% | -2.66
CC(C)[C@H](N)C(=O)NC[C@H](CC(=O)NC[C@H]1CC[C@H](C(=O)O)CC1)c1ccc(Cl)cc1 | -12% | 2.18
O=C(N1CCCCC1)[C@@]1(CCO)CC12CCOCC2 | 11% | -2.11
Cc1nn(C)c(Cl)c1CNCc1ccc(N2CCCC2=O)cc1 | -5% | 0.6
Cn1ccnc1CN1C[C@@H]2C[C@H]1C(=O)NC[C@H]1O[C@H](CCOc3cc(-c4ccncc4)ccc3C(=O)N2)CC[C@@H]1O | -9% | 1.36
Cc1cc(C)n(CC(=O)NC[C@H]2CCCN(C(=O)c3cc4ncccn4n3)C2)n1 | 17% | -2.13
c1ccc(-c2cn3nc(N4CCOCC4)sc3n2)cc1 | -13% | 1.88
CC[C@H](OC(=O)c1ccc(F)c(NC(C)=O)c1)C(C)(C)c1ccccc1 | 3% | -0.41
O=C(Cc1cn(Cc2ccc(F)cc2)c2ccccc12)N1CCN(C(=O)c2ccco2)CC1 | -11% | 1.27

SMILES | % Inhibition | Z score
O=S1(=O)C[C@H](N2CCCCC2)[C@@H](S(=O)(=O)c2cccs2)C1 | 7% | -0.81
Cc1nc(C)n(CCCn2cc(-c3ccc(CO)o3)nn2)n1 | -7% | 1.08
O=C(NC1CCN(Cc2ccccc2)CC1)[C@H]1CCc2ncc(-c3ccsc3)n2C1 | -5% | 1.01
O=C(NCCc1cncnc1)c1ccc(Oc2ccccc2)cc1 | 3% | -0.38
CN(C[C@H]1CCCO1)C(=O)c1c[nH]c(=O)n(C)c1=O | 26% | -2.96
O=C(NC[C@H]1CCCO1)c1ccc(CN2CCN(c3ccccc3F)CC2)o1 | -10% | 1.13
O=C(NCc1ccco1)Nc1cccnc1 | -3% | 0.62
O=C(Nc1ccccc1N1CCCC1)N[C@H](CCO)c1ccccc1 | 0% | 0.03
Cc1cccnc1CN[C@@H](C)c1ccc(F)cc1OC(F)F | -5% | 0.46
CCN(CC)Cc1cnc2c(C(=O)N3CCN(C)[C@@H](C)C3)cnn2c1 | -15% | 2.78
C#CCN1CCN(C(=O)CNc2ccc(CC(=O)N(C)C)cc2)CC1 | 32% | -3.57
Cc1ccc(NC(=O)Cn2nc(N3CCCCCC3)c3ccccc3c2=O)c(Cl)c1 | -8% | 1.27
Cc1cn(C2CCCCC2)nc1NC(=O)NCc1nnn(C(C)(C)C)n1 | -12% | 1.56
C[C@H](NS(=O)(=O)CC1CCCCC1)c1ccc(S(C)(=O)=O)cc1 | 0% | -0.05
COc1ccc([C@H](C)NCCC(=O)N(C)C)c(Br)c1 | -1% | 0.13
O=C(N[C@@H]1CN(C(=O)C2CCC2)CC[C@@H]1CO)c1cccnc1 | -8% | 1.07
COc1ccccc1CNc1ccc(C(=O)NCCCN2CCCC2=O)cc1S(=O)(=O)Nc1cccc(C(F)(F)F)c1 | -6% | 0.73
Brc1ccc(Cc2nc(Cn3ccnn3)no2)cc1 | -1% | 0.08
COc1ccc2[nH]nc(NC(=O)CC[C@H]3CCC(=O)N3)c2c1 | 7% | -1.25
COC(=O)[C@@H](NCc1cccc(C#N)c1)C(C)(C)C | 3% | -0.44
Cc1ncsc1C(=O)N1CCC2(CCCCC2)C1 | 37% | -5.42

SMILES | % Inhibition | Z score
NC(=O)c1csc(CN2CCc3cc(F)ccc3C2)c1 | -1% | 0.1
CC(CNC(=O)NCC1CCCO1)N(C)Cc1ccccc1 (centres undefined) | -5% | 0.52
O=C(c1cccs1)N1CCN(Cc2c(-c3ccc(Cl)cc3)nc3ccc(-c4cccc(Cl)c4)cn23)CC1 | -22% | 2.39
CCOC(=O)c1cc(C2CC2)nc2c1c(=O)n(Cc1ccccc1F)c(=O)n2C | -1% | 0.13
CC(C(=O)NCC(C)(O)c1ccsc1)N1CCc2ccccc21 (centres undefined) | -12% | 1.21
CC(C)c1ccc(NC(=O)c2cc(S(=O)(=O)N3CCCCCC3)cn2C)cc1 | -7% | 0.95
O=C(c1cc(C(F)F)n[nH]1)N1CCc2[nH]nc(C3CC3)c2C1 | -1% | 0.13
O=C(Nc1ccc(NC(=O)[C@H]2Nc3ccc(Cl)cc3S(=O)(=O)N2)cc1)c1ccco1 | -4% | 0.69
Cc1sc2cc(C(=O)NC(C)(C)C)[nH]c2c1CN1CCOCC1 | 8% | -0.73
Cn1nc(C(=O)N(CC(F)(F)F)C2CCC2)ccc1=O | -5% | 0.5
O=C(O)c1ccc2c(c1)CN(C(=O)C1CCC=CCC1)C2 | -1% | 0.31
COC1CCCN(C(=O)CC2(c3ccccc3)CC(=O)N(CC3CCCCC3)C2=O)C1 (centres undefined) | -17% | 2.29
Cc1[nH]nc(CN(C)[C@@H](C)CC(N)=O)c1Cl | -12% | 1.61
COc1ccccc1C1CC1C(=O)N1CCCCCCC1 (centres undefined) | -4% | 0.8
O=C(c1cc(-c2ccc(Cl)s2)nc2ccccc12)N1CCN(c2cccc(Cl)c2)CC1 | -26% | 3.1
CO[C@H]1CN(C2CCN(C(=O)c3cccc4[nH]ccc34)CC2)C12CCOCC2 | -9% | 1.45
C=Cn1cc(CNC(c2ccccc2)C2CCCO2)cn1 (centres undefined) | -4% | 0.55
Cc1ccc(Nc2nc3ccccc3nc2C(=O)OC(C)C)c(C)c1 | -14% | 1.61
CCCOc1ccc([C@@H](N)CC(=O)OC)cc1OC | -12% | 1.66
